Here are results for eleven compounds from PubChem BioAssay AID248 (DTP/NCI, 2004).

For this test, the system named is L1210 leukemia ip in BDF1 mice, survival T/C. Description: NCI In Vivo Anticancer Drug Screen. Data for tumor model L1210 Leukemia (intraperitoneal) in B6D2F1 (BDF1) mice. The settings on record: endpoint: mean survival time, higher = longer survival.
Where [1] appears, read: dose: 400.0 mg/kg/injection, schedule: Q04DX002 (ip), vehicle: saline.
Setting [2] is: dose: 400.0 mg/kg/injection, schedule: Q01DX009 (ip), vehicle: saline with Tween-80.

Inconclusive results and toxic doses are left out. Certain results were filed several times, with different values. This list holds those alone. The source may hold further records. The records of an entry repeat one measurement across runs, samples, wells, individuals or studies.

Take `C=CC(=O)OCC(C)(C)C`: the T/C under setting [1] was 100 % of control and 155 % of control.

Take `O=c1[nH]nc(SCc2ccccc2)c(=S)[nH]1`: the T/C (dose: 400.0 mg/kg/injection, schedule: Q01DX001 (ip), vehicle: other) is 97 % of control and 166 % of control.

With `CCNc1nncs1`, where the note is “dose: 150.75 mg/kg/injection, schedule: Q02DX010 (ip), vehicle: carboxymethylcellulose (CMC)”, the T/C was 105 % of control and 154 % of control.

Take `CN(C)CC(=O)c1ccc(O)c(O)c1`: under “dose: 300.0 mg/kg/injection, schedule: Q01DX Z (ip), vehicle: saline”, the T/C was 113 % of control and 155 % of control.

In the case of `CC1(C#N)CC(c2ccccc2)Nc2ccccc2N1` (stereo unspecified), the T/C (dose: 400.0 mg/kg/injection, schedule: Q04DX003 (ip), vehicle: Klucel (hydroxypropylcellulose) (HPC)) was 92 % of control, 96 % of control, 164 % of control.

Regarding `CCCC(=O)Nc1ccc(O)cc1`, the T/C under setting [2] was 123 % of control and 160 % of control.

For `CN(C)N=Nc1cc(Cl)cc(C(N)=O)c1Cl`, the T/C under setting [2] was 118 % of control and 170 % of control.

For the compound `CCCCC(=O)NN`, the T/C (dose: 100.0 mg/kg/injection, schedule: Q01DX009 (ip), vehicle: saline with Tween-80) was 90 % of control and 155 % of control.

Turning to `O=C(NO)c1ccc([N+](=O)[O-])cc1`, the T/C (dose: 400.0 mg/kg/injection, schedule: Q01DX015 (ip), vehicle: water) is 119 % of control, 152 % of control, 159 % of control.

As for `Nc1c(F)c(F)c(C(=O)O)c(F)c1F`, the T/C under setting [1] is 91 % of control and 156 % of control.

As to `Nc1nc(=O)n(C2CC(O)C(CO)O2)cc1F` (stereo unspecified), the T/C (dose: 45.0 mg/kg/injection, schedule: Q01DX Z (ip), vehicle: saline) is 115 % of control and 158 % of control.
